Measured values: publication PMC12820563, “FoxP3 forms a head-to-head dimer in vivo and stabilizes its multimerization on adjacent microsatellites”
The list shows a part of the results.

molecular target: T1, MBP-FoxP1dN (Mus musculus, UniProt P58462 326-579); assay: PD-seq (MBP pull-down with sequencing); 20 mM Tris-HCl pH 7.5, 100 mM NaCl, 1.5 mM MgCl2, 0.4 uM protein, 0.1 uM dsDNA library, 30 min, room temperature, amylose pull-down; high values mean tight binding; conditions: protein: recombinant; tags: His6-MBP; chain copies: 2; dsDNA, one strand shown
T1 sequence: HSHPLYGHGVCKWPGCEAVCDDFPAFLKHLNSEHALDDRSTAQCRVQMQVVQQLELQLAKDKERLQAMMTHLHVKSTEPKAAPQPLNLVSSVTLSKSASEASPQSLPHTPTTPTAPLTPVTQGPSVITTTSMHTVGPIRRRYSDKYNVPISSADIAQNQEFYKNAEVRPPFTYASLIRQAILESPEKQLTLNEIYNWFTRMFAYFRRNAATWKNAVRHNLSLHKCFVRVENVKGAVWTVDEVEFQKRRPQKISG
Method in brief: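 Mouse FoxP3 or FoxP1 fragment lacking the N-terminus, His6-MBP-tagged and expressed in E. coli, was incubated at 0.4 µM with 0.1 µM Klenow-filled degenerate double-stranded DNA library for 30 min at room temperature in Tris pH 7.5 buffer with NaCl and MgCl2. Complexes captured on amylose resin were washed three times and their DNA sequenced on Illumina. Binding is reads-per-million enrichment of pull-down over input, replicates pooled.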

Sequence | binding signal
GATGATTGTTCTCCCAGCTGATGAATTAAAACAATCGAGTAAACAAATTTTCCTAATCTTTCTGTTCAAGCGCCATCTAC | 2 RPM ratio (pull-down/input)
GATGATTGTTCTCCCAGCTGATGAATTGGTGTATTCGAGTAAACAAATTTTCCTAATCTTTCTGTTCAAGCGCCATCTAC | 1.47 RPM ratio (pull-down/input)
GATGATTGTTCTCCCAGCTGATGAATTACGGTTATCGAGTAAACAAATTTTCCTAATCTTTCTGTTCAAGCGCCATCTAC | 1.1 RPM ratio (pull-down/input)
GATGATTGTTCTCCCAGCTGATGAATTTCACATGTCGAGTAAACAAATTTTCCTAATCTTTCTGTTCAAGCGCCATCTAC | 0.822 RPM ratio (pull-down/input)
GATGATTGTTCTCCCAGCTGATGAATTACGCCAGTCGAGTAAACAAATTTTCCTAATCTTTCTGTTCAAGCGCCATCTAC | 0.949 RPM ratio (pull-down/input)
GATGATTGTTCTCCCAGCTGATGAATTACCCGGCTCGAGTAAACAAATTTTCCTAATCTTTCTGTTCAAGCGCCATCTAC | 0.84 RPM ratio (pull-down/input)
GATGATTGTTCTCCCAGCTGATGAATTGGTCAGCTCGAGTAAACAAATTTTCCTAATCTTTCTGTTCAAGCGCCATCTAC | 0.862 RPM ratio (pull-down/input)
GATGATTGTTCTCCCAGCTGATGAATTCCGTTTATCGAGTAAACAAATTTTCCTAATCTTTCTGTTCAAGCGCCATCTAC | 1.27 RPM ratio (pull-down/input)
GATGATTGTTCTCCCAGCTGATGAATTATGTAGCTCGAGTAAACAAATTTTCCTAATCTTTCTGTTCAAGCGCCATCTAC | 1.02 RPM ratio (pull-down/input)
GATGATTGTTCTCCCAGCTGATGAATTAAATACGTCGAGTAAACAAATTTTCCTAATCTTTCTGTTCAAGCGCCATCTAC | 1.18 RPM ratio (pull-down/input)
GATGATTGTTCTCCCAGCTGATGAATTGCCCTGTTCGAGTAAACAAATTTTCCTAATCTTTCTGTTCAAGCGCCATCTAC | 0.883 RPM ratio (pull-down/input)
GATGATTGTTCTCCCAGCTGATGAATTGCGGGCCTCGAGTAAACAAATTTTCCTAATCTTTCTGTTCAAGCGCCATCTAC | 0.933 RPM ratio (pull-down/input)
GATGATTGTTCTCCCAGCTGATGAATTGCAAGATTCGAGTAAACAAATTTTCCTAATCTTTCTGTTCAAGCGCCATCTAC | 1.13 RPM ratio (pull-down/input)
GATGATTGTTCTCCCAGCTGATGAATTGGAAGGTTCGAGTAAACAAATTTTCCTAATCTTTCTGTTCAAGCGCCATCTAC | 0.78 RPM ratio (pull-down/input)
GATGATTGTTCTCCCAGCTGATGAATTAGCTTTCTCGAGTAAACAAATTTTCCTAATCTTTCTGTTCAAGCGCCATCTAC | 0.863 RPM ratio (pull-down/input)
GATGATTGTTCTCCCAGCTGATGAATTATCCACCTCGAGTAAACAAATTTTCCTAATCTTTCTGTTCAAGCGCCATCTAC | 0.874 RPM ratio (pull-down/input)
GATGATTGTTCTCCCAGCTGATGAATTAATATATTCGAGTAAACAAATTTTCCTAATCTTTCTGTTCAAGCGCCATCTAC | 1.04 RPM ratio (pull-down/input)
GATGATTGTTCTCCCAGCTGATGAATTACGGCAGTCGAGTAAACAAATTTTCCTAATCTTTCTGTTCAAGCGCCATCTAC | 0.947 RPM ratio (pull-down/input)
GATGATTGTTCTCCCAGCTGATGAATTATCCTGTTCGAGTAAACAAATTTTCCTAATCTTTCTGTTCAAGCGCCATCTAC | 0.962 RPM ratio (pull-down/input)
GATGATTGTTCTCCCAGCTGATGAATTGTTAGGGTCGAGTAAACAAATTTTCCTAATCTTTCTGTTCAAGCGCCATCTAC | 1.05 RPM ratio (pull-down/input)

Sequence | binding signal
GATGATTGTTCTCCCAGCTGATGAATTCGGGCCGTCGAGTAAACAAATTTTCCTAATCTTTCTGTTCAAGCGCCATCTAC | 0.769 RPM ratio (pull-down/input)
GATGATTGTTCTCCCAGCTGATGAATTCCATGTATCGAGTAAACAAATTTTCCTAATCTTTCTGTTCAAGCGCCATCTAC | 1.03 RPM ratio (pull-down/input)
GATGATTGTTCTCCCAGCTGATGAATTTCATAACTCGAGTAAACAAATTTTCCTAATCTTTCTGTTCAAGCGCCATCTAC | 0.891 RPM ratio (pull-down/input)
GATGATTGTTCTCCCAGCTGATGAATTTCTAATGTCGAGTAAACAAATTTTCCTAATCTTTCTGTTCAAGCGCCATCTAC | 1.03 RPM ratio (pull-down/input)
GATGATTGTTCTCCCAGCTGATGAATTCGTGACATCGAGTAAACAAATTTTCCTAATCTTTCTGTTCAAGCGCCATCTAC | 0.992 RPM ratio (pull-down/input)
GATGATTGTTCTCCCAGCTGATGAATTTCTTGGTTCGAGTAAACAAATTTTCCTAATCTTTCTGTTCAAGCGCCATCTAC | 0.839 RPM ratio (pull-down/input)
GATGATTGTTCTCCCAGCTGATGAATTAGACATCTCGAGTAAACAAATTTTCCTAATCTTTCTGTTCAAGCGCCATCTAC | 0.973 RPM ratio (pull-down/input)
GATGATTGTTCTCCCAGCTGATGAATTGTTAAAATCGAGTAAACAAATTTTCCTAATCTTTCTGTTCAAGCGCCATCTAC | 1.24 RPM ratio (pull-down/input)
GATGATTGTTCTCCCAGCTGATGAATTGGCATCATCGAGTAAACAAATTTTCCTAATCTTTCTGTTCAAGCGCCATCTAC | 1.11 RPM ratio (pull-down/input)
GATGATTGTTCTCCCAGCTGATGAATTTCTGCCGTCGAGTAAACAAATTTTCCTAATCTTTCTGTTCAAGCGCCATCTAC | 0.825 RPM ratio (pull-down/input)
GATGATTGTTCTCCCAGCTGATGAATTACGGGGCTCGAGTAAACAAATTTTCCTAATCTTTCTGTTCAAGCGCCATCTAC | 0.806 RPM ratio (pull-down/input)
GATGATTGTTCTCCCAGCTGATGAATTACTCACTTCGAGTAAACAAATTTTCCTAATCTTTCTGTTCAAGCGCCATCTAC | 1.09 RPM ratio (pull-down/input)
GATGATTGTTCTCCCAGCTGATGAATTCCGCGCTTCGAGTAAACAAATTTTCCTAATCTTTCTGTTCAAGCGCCATCTAC | 0.891 RPM ratio (pull-down/input)
GATGATTGTTCTCCCAGCTGATGAATTTTGGACATCGAGTAAACAAATTTTCCTAATCTTTCTGTTCAAGCGCCATCTAC | 1.05 RPM ratio (pull-down/input)
GATGATTGTTCTCCCAGCTGATGAATTGTCCTCTTCGAGTAAACAAATTTTCCTAATCTTTCTGTTCAAGCGCCATCTAC | 1.03 RPM ratio (pull-down/input)
GATGATTGTTCTCCCAGCTGATGAATTAGCCTGCTCGAGTAAACAAATTTTCCTAATCTTTCTGTTCAAGCGCCATCTAC | 0.857 RPM ratio (pull-down/input)
GATGATTGTTCTCCCAGCTGATGAATTCTTCTTATCGAGTAAACAAATTTTCCTAATCTTTCTGTTCAAGCGCCATCTAC | 0.893 RPM ratio (pull-down/input)
GATGATTGTTCTCCCAGCTGATGAATTTCGCCGATCGAGTAAACAAATTTTCCTAATCTTTCTGTTCAAGCGCCATCTAC | 0.845 RPM ratio (pull-down/input)
GATGATTGTTCTCCCAGCTGATGAATTGTAATACTCGAGTAAACAAATTTTCCTAATCTTTCTGTTCAAGCGCCATCTAC | 1.04 RPM ratio (pull-down/input)
GATGATTGTTCTCCCAGCTGATGAATTAAAGCGTTCGAGTAAACAAATTTTCCTAATCTTTCTGTTCAAGCGCCATCTAC | 1.03 RPM ratio (pull-down/input)
